Data: PubChem BioAssay AID504333 (National Center for Advancing Translational Sciences (NCATS), 2011)
About 16,000 (4.4%) of roughly 360,000 compounds were called active. The shares of active, inactive and inconclusive entries below differ from those in the screen. Calls follow the shape of the dose curve; as a rule, active = well fitted inhibition curve with a large enough effect; inconclusive = small, poorly fitted or top-dose-only effect; inactive = no such curve, though single readings can be large or run the other way. Potencies beside an inconclusive call are fits to weak or partial responses and may not hold up.
Also: nearly all actives have a fitted effect of over 60% in size.
Potency is read from the fitted curve at half-maximal effect; tags tell the direction and shape of the fitted curve.

The compounds below were run against Bromodomain adjacent to zinc finger domain protein 2B (Homo sapiens) (UniProt Q9UIF8) (assay: qHTS Assay for Inhibitors of BAZ2B). Settings: AlphaScreen BAZ2B-H3K14Ac peptide displacement; series mostly up to 114 µM.
Sequence of UniProt Q9UIF8 (Q9UIF8 whole entry, looked up, the tested form may be a part): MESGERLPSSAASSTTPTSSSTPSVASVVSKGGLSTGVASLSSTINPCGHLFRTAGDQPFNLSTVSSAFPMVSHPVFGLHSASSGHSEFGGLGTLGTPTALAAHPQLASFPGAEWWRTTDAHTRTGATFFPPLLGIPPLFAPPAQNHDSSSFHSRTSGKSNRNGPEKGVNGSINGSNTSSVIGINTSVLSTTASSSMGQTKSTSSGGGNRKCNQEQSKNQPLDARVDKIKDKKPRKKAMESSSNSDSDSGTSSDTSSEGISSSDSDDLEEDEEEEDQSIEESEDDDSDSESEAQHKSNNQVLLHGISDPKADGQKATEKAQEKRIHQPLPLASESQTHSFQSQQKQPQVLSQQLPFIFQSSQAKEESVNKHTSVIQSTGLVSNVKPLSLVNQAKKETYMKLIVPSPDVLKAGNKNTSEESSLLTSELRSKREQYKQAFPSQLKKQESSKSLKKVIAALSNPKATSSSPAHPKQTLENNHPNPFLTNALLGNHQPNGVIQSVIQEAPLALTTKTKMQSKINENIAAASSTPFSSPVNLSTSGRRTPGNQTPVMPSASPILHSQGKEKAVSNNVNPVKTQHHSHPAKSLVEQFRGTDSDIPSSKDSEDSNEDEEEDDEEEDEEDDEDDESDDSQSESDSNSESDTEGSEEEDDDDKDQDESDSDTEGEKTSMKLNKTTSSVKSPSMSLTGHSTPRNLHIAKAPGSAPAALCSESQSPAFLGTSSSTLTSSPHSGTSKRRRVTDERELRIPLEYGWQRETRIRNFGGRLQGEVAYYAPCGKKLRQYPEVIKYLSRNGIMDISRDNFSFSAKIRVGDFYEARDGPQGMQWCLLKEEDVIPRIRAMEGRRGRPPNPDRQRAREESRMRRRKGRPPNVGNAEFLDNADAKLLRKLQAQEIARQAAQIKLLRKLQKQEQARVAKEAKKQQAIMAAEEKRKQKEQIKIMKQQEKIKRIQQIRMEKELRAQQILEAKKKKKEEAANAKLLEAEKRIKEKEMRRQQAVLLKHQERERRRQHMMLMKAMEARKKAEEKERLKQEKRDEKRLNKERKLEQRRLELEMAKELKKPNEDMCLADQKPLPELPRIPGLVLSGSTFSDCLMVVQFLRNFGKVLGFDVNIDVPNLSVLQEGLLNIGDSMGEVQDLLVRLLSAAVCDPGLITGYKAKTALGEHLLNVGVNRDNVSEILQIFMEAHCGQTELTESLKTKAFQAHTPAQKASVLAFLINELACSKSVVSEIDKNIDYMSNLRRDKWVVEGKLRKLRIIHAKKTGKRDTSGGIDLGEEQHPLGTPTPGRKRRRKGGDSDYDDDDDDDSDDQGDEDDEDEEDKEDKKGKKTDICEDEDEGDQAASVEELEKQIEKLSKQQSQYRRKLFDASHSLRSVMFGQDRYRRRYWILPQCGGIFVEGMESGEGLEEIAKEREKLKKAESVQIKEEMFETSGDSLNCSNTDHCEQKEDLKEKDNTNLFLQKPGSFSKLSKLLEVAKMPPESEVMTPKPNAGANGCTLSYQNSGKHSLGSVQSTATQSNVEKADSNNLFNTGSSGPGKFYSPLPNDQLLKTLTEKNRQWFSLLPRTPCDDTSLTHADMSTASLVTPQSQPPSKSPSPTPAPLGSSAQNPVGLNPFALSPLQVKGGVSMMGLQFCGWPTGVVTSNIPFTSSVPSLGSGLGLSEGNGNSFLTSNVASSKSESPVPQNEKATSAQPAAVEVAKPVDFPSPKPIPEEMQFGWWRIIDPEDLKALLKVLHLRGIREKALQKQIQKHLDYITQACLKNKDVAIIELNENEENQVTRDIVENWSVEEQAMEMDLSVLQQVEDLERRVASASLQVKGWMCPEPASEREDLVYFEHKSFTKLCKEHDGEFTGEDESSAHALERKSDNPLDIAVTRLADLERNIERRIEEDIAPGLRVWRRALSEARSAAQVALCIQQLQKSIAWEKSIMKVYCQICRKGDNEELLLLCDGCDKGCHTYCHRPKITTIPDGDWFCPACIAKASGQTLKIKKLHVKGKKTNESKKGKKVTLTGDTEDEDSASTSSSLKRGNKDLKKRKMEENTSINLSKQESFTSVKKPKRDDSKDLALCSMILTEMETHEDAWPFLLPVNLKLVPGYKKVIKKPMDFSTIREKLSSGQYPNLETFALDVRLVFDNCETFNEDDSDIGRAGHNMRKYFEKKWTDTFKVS
Method in brief: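 AlphaScreen luminescence quantifies BAZ2B engagement of H3K14Ac peptide; the protein and biotinylated peptide are both at 50 nM final, buffer PBS pH 7.4 with 0.01% Tween-20, all steps at room temperature.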
With `COc1ccc(CN2C(=O)/C(=C/c3ccncc3)SC2=S)cc1` the Potency was active: 8.91 µM. With `CC(C)CN(CC(C)C)CC(O)Cn1cc(/C=C/C(=O)c2ccccc2)c2ccccc21` (configuration not stated) the Potency was active: 89.1 µM. With `C#CCOCCOCCOCCNc1nc(N2CCN(C(=O)[C@H](CCC(=O)O)n3cc(C(N)CO)nn3)CC2)nc(N2CCN(C(=O)[C@H](CCC(=O)O)n3cc(C(N)[C@H](C)CC)nn3)CC2)n1` (some centres not stated) the Potency was active: 35.5 µM. With `Cc1ccccc1NC(=S)NCCc1ccccc1` the Potency was inconclusive: 79.4 µM [inhibitor, partial curve]. `O=C(COc1ccc(F)cc1)OCc1cc(=O)n2nc(-c3cccs3)sc2n1` was tested, and the Potency was inconclusive: 100 µM [inhibitor, single point]. In the case of `O=C(NNS(=O)(=O)c1ccc(Cl)cc1)c1cccc(S(=O)(=O)N2CCOCC2)c1`, the Potency is reported as “inactive”. For `CN(C)S(=O)(=O)N1CCN(S(=O)(=O)c2ccc3ccccc3c2)CC1`, the Potency was inconclusive: 7.08 µM [inhibitor, single point]. `CCOc1ccc(S(=O)(=O)Nc2ccc3oc4c(c3c2)CC(C)CC4)cc1` (configuration not stated) was tested, and the Potency was inconclusive: 8.91 µM [inhibitor, full curve, poor fit]. `O=C(Nc1ccc(C(O)(C(F)(F)F)C(F)(F)F)cc1)c1ccc(Cl)c([N+](=O)[O-])c1` was tested, and the Potency was inconclusive: 79.4 µM [inhibitor, single point]. `CC(O)CNc1ncnc2cc(-c3ccc(F)cc3)sc12` (configuration not stated) was tested, and the Potency was “inactive”. `Cc1cc(C(=O)CSc2nnnn2-c2ccc(O)cc2)c(C)n1Cc1ccc2c(c1)OCO2` was tested, and the Potency was inconclusive: 89.1 µM [inhibitor, single point]. `CCC(C)N1C(=O)/C(=C/c2c(NCCCOC(C)C)nc3c(C)cccn3c2=O)SC1=S` (configuration not stated) was tested, and the Potency was inconclusive: 79.4 µM [inhibitor, single point]. With `Cc1ccccc1-c1ccc(C(=O)Nc2cccc(F)c2)o1` the Potency was inconclusive: 44.7 µM [inhibitor, partial curve]. `CCOc1cc(-c2ccc(OC(=O)c3ccccc3)c(OC)c2)cc(=O)c2c(C)oc(C)c12` was tested, and the Potency was inconclusive: 39.8 µM [inhibitor, partial curve]. `O=C(Nc1ccc(Cl)cc1)[C@@H]1[C@@H]2C(=O)N(c3ccc(Cl)cc3Cl)C(=O)[C@@H]2[C@H]2C=CC=NN21` was tested, and the Potency was inconclusive: 79.4 µM [inhibitor, single point]. In the case of `CCC(C)NC(=O)Cn1c(=O)n(Cc2ccc(C(=O)NCc3ccc(C)cc3)cc2)c(=O)c2ccccc21` (configuration not stated), the Potency is reported as inconclusive: 89.1 µM [inhibitor, single point]. `COc1ccccc1N1CCN(C2CCCCC2NS(=O)(=O)c2ccc(Cl)cc2)CC1` (configuration not stated) was tested, and the Potency was inconclusive: 28.2 µM [inhibitor, single point]. With `COc1ccc2occ(C(C)=O)c2c1` the Potency was inconclusive: 89.1 µM [inhibitor, single point]. With `COCCn1c(SCC(=O)Nc2cc(C)on2)nc2c(c1=O)SCC2` the Potency was inconclusive: 100 µM [inhibitor, single point]. In the case of `O=C(CN1CC(=O)Oc2ccccc21)NCc1ccco1`, the Potency is reported as active: 44.7 µM. For `COc1cccc(N2C(=O)C(O)=C(C(C)=O)C2c2ccc(OC)c(OC)c2)c1` (configuration not stated), the Potency was inconclusive: 89.1 µM [inhibitor, single point]. `N=c1c(C(=O)NCC2CCCO2)cc2c(=O)n3ccccc3nc2n1Cc1ccc(F)cc1` (configuration not stated) was tested, and the Potency was “inactive”. `CC1CCc2c(C(=O)NCc3ccco3)csc2C1` (configuration not stated) was tested, and the Potency was “inactive”. In the case of `CN(C)c1[nH]c(=O)c(C#N)c2c1CCN2Cc1ccccc1`, the Potency is reported as inconclusive: 79.4 µM [inhibitor, partial curve]. For `CCOc1cc(NC(=S)Nc2ccccc2OC)c(OCC)cc1NC(=O)c1ccccc1C`, the Potency was inconclusive: 10 µM [inhibitor, partial curve]. With `S=c1[nH]nc(Nc2cccc3ccccc23)s1` the Potency was inconclusive: 50.1 µM [inhibitor, partial curve]. For `COc1ccccc1CNC(=O)CSc1ccc(-c2ccccn2)nn1`, the Potency was active: 8.91 µM. `Cc1cc([N+](=O)[O-])cc([N+](=O)[O-])c1NCC(C)C` was tested, and the Potency was active: 12.6 µM. `CCOC(=O)c1c(NC(=S)Nc2cc([N+](=O)[O-])ccc2OC)sc2c1CCCCC2` was tested, and the Potency was inconclusive: 39.8 µM [inhibitor, partial curve]. `COc1ccc(Nc2nc(Cl)nc(N3CCN(c4ccc(OC)cc4)CC3)n2)cc1` was tested, and the Potency was active: 8.91 µM. For `O=C(Nc1cccc(F)c1)c1oc2ccccc2c1NC(=O)C12CC3CC(CC(C3)C1)C2`, the Potency was “inactive”. For `COc1cccc(Cn2c(CNS(=O)(=O)c3ccc(Cl)s3)nc3cccnc32)c1`, the Potency was “inactive”. For `CCc1ccc(-n2nc3ccc(NC(=O)COc4ccc(OC)cc4)cc3n2)cc1`, the Potency was “inactive”. In the case of `CCOC(=O)C1=C(O)/C(=C/c2ccc(OCC(=O)O)c(OC)c2)SC1=Nc1ccc(OCC)cc1`, the Potency is reported as inconclusive: 89.1 µM [inhibitor, single point]. With `COC(=O)c1cc(=O)n(Cc2ccc3c(c2)OCO3)c(=Nc2ccccc2)s1` the Potency was inconclusive: 22.4 µM [inhibitor, full curve]. `COc1ccc(OC)c(C(=O)NC(CC(N)=O)c2ccc(NCc3ccccn3)c([N+](=O)[O-])c2)c1` (configuration not stated) was tested, and the Potency was inconclusive: 70.8 µM [inhibitor, single point]. With `CC(=O)c1ccc(Nc2ncnc3c2oc2ccccc23)cc1` the Potency was inconclusive: 89.1 µM [inhibitor, single point]. `CCCn1nnnc1NC(=O)c1cc(Br)ccc1OC` was tested, and the Potency was inconclusive: 79.4 µM [inhibitor, single point]. With `COc1ccc(/C=N/n2c(=S)n(C)c3ccccc32)cc1OC` the Potency was inconclusive: 79.4 µM [inhibitor, single point]. `CCOc1ccc(NCc2nc3ccccc3n2CCOc2ccc(C)cc2)cc1` was tested, and the Potency was active: 12.6 µM. In the case of `Cc1sc(NC(=O)CCl)c(C(=O)c2ccccc2)c1C`, the Potency is reported as inconclusive: 44.7 µM [inhibitor, partial curve]. With `CC1(C)C2CC[C@]1(C)C(=O)N(CCCCN1CCN(c3ccccn3)CC1)C2=O` the Potency was inconclusive: 89.1 µM [inhibitor, single point]. In the case of `O=C1NC(=S)S/C1=C\c1coc2ccccc2c1=O`, the Potency is reported as inconclusive: 79.4 µM [inhibitor, single point]. In the case of `CCOC(=O)/C(=C/C=C1\Sc2cc(C)c(C)cc2N1CC)C(C)=O`, the Potency is reported as active: 39.8 µM. For `COc1ccc(C(CC(=O)N2CCN(c3ccccc3)CC2)c2c(O)cc(OC)cc2OC)cc1` (configuration not stated), the Potency was inconclusive: 70.8 µM [inhibitor, partial curve]. For `COc1cccc(NC(=O)/C=C/c2ccccc2[N+](=O)[O-])c1`, the Potency was inconclusive: 50.1 µM [inhibitor, partial curve]. For `CC(=O)OCCNc1cc(N2CCN(C)CC2)c2noc3c2c1C(=O)c1ccccc1-3`, the Potency was active: 39.8 µM. With `O=C(Nc1ccccc1C(=O)OCc1cc(=O)n2nc(C3CC3)sc2n1)c1cccc(F)c1` the Potency was “inactive”. In the case of `CCOCCCNc1c(CC)c(C)c(C#N)c2nc3ccccc3n12`, the Potency is reported as inconclusive: 100 µM [inhibitor, single point]. In the case of `COc1ccc(/C=C2\SC(=O)N(CCNC(=O)Cc3coc4cc(C)ccc34)C2=O)cc1OC`, the Potency is reported as “inactive”. In the case of `CCOc1ccc(-n2ccnc2SCC(=O)Nc2cc(C)on2)cc1`, the Potency is reported as inconclusive: 89.1 µM [inhibitor, single point]. `CN1CCc2c(C#N)c(N3CCCCC3)nc(NCc3ccccc3)c2C1` was tested, and the Potency was inconclusive: 56.2 µM [inhibitor, partial curve]. With `Fc1ccc(C2C3=C(Nc4ncnn42)c2ccccc2OC3c2ccncc2)cc1` (configuration not stated) the Potency was inconclusive: 79.4 µM [inhibitor, single point]. With `CC1CC(C)CN(CCCNC(=O)CCC(=O)N2CCOc3ccccc32)C1` (configuration not stated) the Potency was “inactive”. `CNC(=S)N(CCc1c(C)[nH]c2ccc(C)cc12)Cc1cc(OC)c(OC)c(OC)c1` was tested, and the Potency was active: 39.8 µM. For `Cc1nc2ccccc2nc1OCc1ccc([N+](=O)[O-])cc1`, the Potency was inconclusive: 79.4 µM [inhibitor, partial curve]. With `CCCOc1ccc(-c2cc(C(F)(F)F)c(C#N)c(SCCC(=O)O)n2)cc1` the Potency was inconclusive: 89.1 µM [inhibitor, single point]. For `CCOC(=O)N1CCN(C(=O)c2ccc3c(c2)N(Cc2cc(C)ccc2C)C(=O)c2ccccc2S3=O)CC1` (configuration not stated), the Potency was “inactive”. With `CC(=O)Nc1cccc(C(=O)Nc2ccccc2C(=O)O)c1` the Potency was inconclusive: 89.1 µM [inhibitor, single point]. `N#Cc1nc(COc2cccc(Cl)c2)oc1N1CCN(c2ccccc2)CC1` was tested, and the Potency was inconclusive: 10 µM [inhibitor, full curve]. In the case of `C=CC[n+]1c(C)csc1Nc1ccc(C(=O)O)cc1`, the Potency is reported as inconclusive: 89.1 µM [inhibitor, single point]. For `Cc1ccc(C(=O)CNc2ccccc2C)cc1`, the Potency was “inactive”. With `COc1ccccc1CN(C)C(=O)CN1C(=O)c2ccccc2C1=O` the Potency was inconclusive: 28.2 µM [inhibitor, partial curve, poor fit]. `COc1ccc(C2c3[nH]c4ccccc4c3CCN2CCCn2cccn2)cc1C` (configuration not stated) was tested, and the Potency was inconclusive: 28.2 µM [inhibitor, full curve, poor fit]. `O=C(Nc1ccc(F)cc1)c1cccc(N2C(=O)c3ccccc3C2=O)c1` was tested, and the Potency was inconclusive: 79.4 µM [inhibitor, single point]. For `O=C(CCCN1C(=O)/C(=C/c2ccccc2Cl)SC1=S)NCCCN1CCOCC1`, the Potency was inconclusive: 35.5 µM [inhibitor, partial curve]. `COc1cccc(-n2c(=O)c3sc4ccccc4c3n(CC(=O)Nc3ccccc3OC)c2=O)c1` was tested, and the Potency was inconclusive: 89.1 µM [inhibitor, single point].
